PubChem BioAssay AID588579 (National Center for Advancing Translational Sciences (NCATS), 2011)
The campaign covered roughly 400,000 compounds. About 2,200 (0.55%) were called active. Inconclusive means that the source gave no clear call. Such entries were picked first, then a sample of the others. Calls follow the shape of the dose curve; as a rule, active = well fitted inhibition curve with a large enough effect; inconclusive = small, poorly fitted or top-dose-only effect, or another doubt; inactive = no such curve, though single readings can be large or run the other way. Potencies of inconclusive entries are doubtful fits and often do not repeat.

Molecular target: DNA polymerase kappa (Homo sapiens) (UniProt Q9UBT6)
Test: qHTS for Inhibitors of Polymerase Kappa
Settings: purified Pol kappa, fluorescent DNA synthesis assay, 10 min; series mostly up to 107 µM
Procedure, shortened: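 Kinetic fluorescence screen: compound preincubated 15 min RT with 10 nM enzyme; 50 nM substrate (final) initiates; reads at 0/10 min.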
Potency is read from the fitted curve at half-maximal effect; tags tell the direction and shape of the fitted curve.

UniProt Q9UBT6, sequence (Q9UBT6 whole entry, looked up): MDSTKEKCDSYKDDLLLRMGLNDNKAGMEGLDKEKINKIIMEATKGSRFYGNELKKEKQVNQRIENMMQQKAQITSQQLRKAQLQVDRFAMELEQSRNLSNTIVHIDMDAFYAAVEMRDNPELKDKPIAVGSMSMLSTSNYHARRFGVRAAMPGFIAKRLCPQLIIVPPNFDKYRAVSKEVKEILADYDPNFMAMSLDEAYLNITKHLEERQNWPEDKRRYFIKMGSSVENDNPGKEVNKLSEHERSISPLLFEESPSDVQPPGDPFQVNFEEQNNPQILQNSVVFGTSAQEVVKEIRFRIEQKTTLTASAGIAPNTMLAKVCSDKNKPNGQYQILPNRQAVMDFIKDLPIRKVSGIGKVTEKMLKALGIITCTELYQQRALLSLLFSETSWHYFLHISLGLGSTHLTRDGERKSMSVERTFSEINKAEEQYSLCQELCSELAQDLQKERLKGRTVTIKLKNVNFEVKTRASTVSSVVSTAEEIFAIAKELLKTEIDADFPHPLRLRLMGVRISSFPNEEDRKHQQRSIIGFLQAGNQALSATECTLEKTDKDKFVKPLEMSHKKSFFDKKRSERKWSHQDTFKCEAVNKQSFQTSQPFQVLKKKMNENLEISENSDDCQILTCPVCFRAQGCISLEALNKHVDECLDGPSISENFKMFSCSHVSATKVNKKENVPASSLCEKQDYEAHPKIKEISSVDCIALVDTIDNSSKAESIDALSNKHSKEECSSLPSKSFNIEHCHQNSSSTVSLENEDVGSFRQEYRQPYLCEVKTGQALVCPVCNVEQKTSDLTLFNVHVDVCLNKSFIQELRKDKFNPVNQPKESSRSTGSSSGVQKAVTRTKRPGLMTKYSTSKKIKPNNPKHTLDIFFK

| SMILES | Potency |
| --- | --- |
| Nc1nonc1-c1nc2ccccc2n1CC(=O)N/N=C/c1ccc(-c2ccccc2C(=O)O)o1 | inconclusive: 100 µM [inhibitor, single point] |
| Cc1ccccc1C(=O)NCC(c1cccnc1)N1CCc2ccccc21 (stereo not drawn) | inactive |
| O=C(CSc1nc2sccc2c(=O)[nH]1)N1CCN(c2ccccc2)CC1 | inconclusive: 89.1 µM [inhibitor, single point] |
| C(=C\c1ccco1)/C=N/n1cnnc1 | inconclusive: 89.1 µM [inhibitor, single point] |
| CC1(OC(=O)c2cccs2)C(=O)C=C2C=C3CCCN3C=C2C1=O (stereo not drawn) | active: 11.2 µM |
| O=C(CSc1nc(NS(=O)(=O)c2ccccc2)cc(=O)[nH]1)Nc1ccc(Cl)cc1 | active: 44.7 µM |
| COc1ccc(-c2nn3c(-c4ccc(C)cc4)nnc3c3ccccc23)cc1 | inconclusive: 100 µM [inhibitor, partial curve, poor fit] |
| CCc1ccc(OCC(=O)N(Cc2ccco2)Cc2ccco2)cc1 | inactive |
| COc1ccc(-c2ccc3c(c2)S(=O)(=O)c2cccc(C(=O)NC[C@@H]4CCCO4)c2C3=O)cc1OC | inactive |
| Cc1c(C(=O)O)cccc1-c1ccc(/C=C2/NC(=O)N(c3ccccc3)C2=O)o1 | inconclusive: 89.1 µM [inhibitor, single point] |
| CCOc1ccc(Nc2ccc(N)c(S(=O)(=O)O)c2)cc1 | active: 31.6 µM |
| Cc1ccccc1N=C1Nc2ccc(Cl)cc2N[C@]12C[C@H]1CCCC(=O)N3CC[C@@H](C2)[C@@H]13 | inactive |
| COc1ccc(CNC(=O)c2nnn(CC(=O)Nc3cc(C)cc(C)c3)c2N)cc1 | inconclusive: 89.1 µM [inhibitor, single point] |
| O=C(N/N=C/c1ccco1)c1ccc(C(=O)N/N=C/c2ccco2)o1 | inconclusive: 100 µM [inhibitor, single point] |
| CCN(CCCN(C)C)c1ccc(/C=C/c2ccnc3ccccc23)cc1 | inconclusive: 100 µM [inhibitor, partial curve, poor fit] |
| CCCCNc1ncnc2oc(-c3ccco3)c(-c3ccco3)c12 | inconclusive: 79.4 µM [inhibitor, partial curve] |
| COc1cc(CNn2nnnc2N)cc(Br)c1OCC(=O)NC(C)(C)C | inconclusive: 89.1 µM [inhibitor, partial curve, poor fit] |
| N#C/C(=C/c1cn(-c2ccccc2)nc1-c1cccc(S(=O)(=O)N2CCCC2)c1)C(=O)NCc1ccco1 | inconclusive: 89.1 µM [inhibitor, single point] |
